Data on 49 compounds can be found in PubChem BioAssay AID1508642 (National Center for Advancing Translational Sciences (NCATS), 2021).

Each structure is given as a SMILES string. Among all 43,000 compounds or so, about 200 (0.47%) were called active. Not shown: some 12% with an inconclusive outcome. The call rests on the fitted dose curve; in most records, active means well fitted cell-killing curve with a large enough effect; inconclusive means small, poorly fitted or top-dose-only effect, or effect the other way; inactive means flat fitted curve, though single readings scatter. This is one part of the list.
On the % scale 0 is the no-effect control and ±100 the full control effect.

A short description of this experiment: Cell viability qHTS assay in S16 Pmp22-F2sN cells. Further: nearly all actives have a fitted effect of over 65% in size. The note with it: S16 Pmp22-F2sN Schwann cells (luciferase reporters placed in the Pmp22 gene) viability, CellTiter-Glo, 24 h; series mostly up to 57.5 µM; activity change, negative = cytotoxicity: at the top concentration. In outline:
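CellTiter-Glo counter-screen, qHTS, 1536-well. Cells: S16(c9) Pmp22-F2sN, 500-1,000/well in DMEM + 10% FBS. Cpd 23 nL pin transfer, 24 h, 37C/5% CO2. Read: luminescence, CCD imager.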
On to `Cc1nc2sccn2c(=O)c1S(=O)(=O)NCc1ccccc1`, for which the “activity change, negative = cytotoxicity” value is inactive: -6.38%. As for `Cc1ccc(C)c(N2CCN(C(=O)c3ccc4c(c3)c(C)c(C)n4C)CC2)c1`, the figure is inactive: -3.77%; as for `CCOc1ccccc1C1CC(=O)NC(C)=C1C(=O)OCc1ccc(C)cc1` (centres undefined), inactive: 16.6%. As for `Cc1cccc(C)c1OCC(=O)N(Cc1ccc(Cl)cc1)CC1CCCO1` (centres undefined), the figure is inactive: -3.08%; as for `Cc1oc2c(c1C(=O)Nc1ccc(Cl)cc1F)C1=NCCN1C=N2`, inactive: 23.1%; as for `COc1ccc(Cl)cc1C(=O)NCC(c1ccc(N(C)C)cc1)N1CCOCC1` (centres undefined), inactive: 2.96%. As for `CCOC(=O)c1ccc(NC(=O)c2cc3c(=O)n(C)c4ccccc4c3n2C)cc1`, the figure is inactive: 0.919%; as for `Cn1c(=O)cc(SCC(=O)Nc2cccc(C#N)c2)c2ccc(Cl)cc21`, inactive: -5.67%; as for `Cc1ccc(C)c(NC(=O)C(=O)NCCc2csc(-c3cccc(F)c3)n2)c1`, inactive: 9.55%. Take `COc1cc2c(C(=O)N3CCN(c4ccc(C)cc4)C(C)C3)cn(CC(C)C)c(=O)c2cc1OC` (centres undefined): the “activity change, negative = cytotoxicity” value is inactive: -18.4%. To `Cc1nc2ccccn2c(=O)c1NC(=O)c1ccccc1Cl` belongs inactive: -2.19%; to `COc1cccc(NC(=O)CCc2nc(-c3cc(OC)c(OC)c(OC)c3)no2)c1`, inactive: -3.34%; to `COc1ccc(CCNC(=O)c2cc(-c3ccc(Cl)cc3)on2)cc1OC`, inactive: 7.49%. For `CCc1ccc(NC(=O)Cn2ccn(-c3cccc(Cl)c3)c(=O)c2=O)cc1`, the “activity change, negative = cytotoxicity” value was inactive: 6.57%.

Regarding `COc1ccc(C(=O)N2CCC(c3ccncc3)CC2)cc1OC`, the “activity change, negative = cytotoxicity” value was inactive: -1.93%. Consider `Cc1ccc(CN2CCc3nc(N4CCN(C)CC4)ncc3C2)cc1`, for which the “activity change, negative = cytotoxicity” value is inactive: 1.27%. To `COc1ccc(N2CCN(C(=O)Cc3noc4ccc(C)cc34)CC2)cc1` belongs inactive: 0.0813%; to `CCOC(=O)C1=C(CN2CCN(c3ccccc3F)CC2)NC(=O)NC1c1ccc(OC)cc1` (centres undefined), inactive: -10.5%; to `COC(=O)CSc1ccc2nnc(CCNS(=O)(=O)c3ccc(C)cc3)n2n1`, inactive: 0.616%. For the compound `CCc1cccc(C)c1Nc1c(-c2cccc(O)c2)nc2cnccn12`, the “activity change, negative = cytotoxicity” value is inactive: -21.1%. To `COc1ccc(/C=C/c2nc(C#N)c(NC3CCCCC3)o2)cc1OC` belongs inactive: -22%; to `O=C(CCS(=O)(=O)c1cc2c3c(c1)CCN3C(=O)CC2)NCc1ccc(Cl)cc1`, inactive: -14.7%. To `CCOc1ccccc1NC(=O)Cn1nc2c3cc(F)ccc3n(Cc3cccc(C)c3)cc-2c1=O` belongs inactive: -1.36%. As for `COc1ccccc1CNC(=O)Cn1c(-c2cccs2)cc2cc(F)ccc21`, the figure is inactive: 1.56%; as for `COc1ccc(-n2c(SCC(=O)Nc3cc(C)cc(C)c3)nc3c(oc4ccccc43)c2=O)cc1`, inactive: 11.6%; as for `CCOc1ccc(-c2cc(NC(=O)c3c(F)cccc3F)c(C(=O)OC)s2)cc1`, inactive: -23.1%. Regarding `COc1ccccc1N1CCN(C(=O)c2nc(-c3ccc(C)cc3)n3c2CCCCC3)CC1`, the “activity change, negative = cytotoxicity” value is inactive: 9.71%.

On to `CC1CCN(C(=O)c2ccccc2NC(=O)c2nsc3ccccc23)CC1`, for which the “activity change, negative = cytotoxicity” value is inactive: -0.731%. Take `CCc1cccc(NC(=O)C2CCCN2S(=O)(=O)c2ccc3c(c2)n(C)c(=O)c(=O)n3C)c1` (centres undefined): the “activity change, negative = cytotoxicity” value is inactive: 0.0413%. For `Cc1cc(C)c(/C=C/c2onc(C)c2S(=O)(=O)N2CCC(C(=O)NCC(C)c3ccccc3)CC2)c(C)c1` (centres undefined), the “activity change, negative = cytotoxicity” value is inactive: -8.22%. In the case of `Cc1cc(NC(=O)CC(C)C)cc(-c2nc3ncccc3o2)c1O`, the “activity change, negative = cytotoxicity” value is inactive: 17.4%.

For the compound `COc1ccc(NC(=O)c2cc(S(=O)(=O)N3CCCCC3)c[nH]2)cc1Cl`, the “activity change, negative = cytotoxicity” value was inactive: -0.284%. To `COC(=O)c1c(NC(=O)C(C)Oc2ccc(Cl)cc2Cl)sc2c1CCCC2` (centres undefined) belongs inactive: 0.309%; to `Cc1nn(C)c2c1c(-c1ccccc1)cc(=O)n2C(C)C(=O)NCCc1ccc(Cl)cc1` (centres undefined), inactive: -28.2%. To `CCN(CC)CCNC(=O)c1ccc2c(c1)NC(=O)C(CS(=O)(=O)Cc1ccc(F)cc1Cl)N2` (centres undefined) belongs inactive: 13.7%; to `COc1ccc(C(=O)c2oc3ccccc3c2NC(=O)COc2cccc(C)c2)cc1`, inactive: 11.4%; to `COc1ccc(-c2ccc3c(N)c(C(=O)Nc4ccc(C)cc4C)sc3n2)cc1OC`, inactive: -18.6%.

With `COc1ccc(S(=O)(=O)NCC(c2ccco2)N2CCN(c3ccccc3F)CC2)cc1OC` (centres undefined), the “activity change, negative = cytotoxicity” value was inactive: -4.68%. To `CC(C)c1nc2ccc(C(=O)NCc3ccc(F)cc3)cc2o1` belongs inactive: 11.7%.

`Cn1c2c(c(=O)n(C)c1=O)C(c1cc(Br)ccc1F)CC(=O)N2` (centres undefined): the “activity change, negative = cytotoxicity” value is inactive: 0.0344%. As for `CCc1ccccc1NS(=O)(=O)c1ccc(-c2coc(C)n2)cc1`, the figure is inactive: -26.1%; as for `Cc1oc2ncnc(N3CCCCC3)c2c1C(=O)Nc1cccc(Cl)c1C`, inactive: -1.58%; as for `Cc1ccc2[nH]c(CSc3nnc(NC(=O)COc4ccccc4C)s3)cc(=O)c2c1`, inactive: -22.8%. To `COc1ccc(Nc2cc(C(=O)NCCCN(C)c3ccccc3)c3ccccc3n2)c(OC)c1` belongs inactive: -0.446%; to `COc1ccc(NC(=O)CC2C(=O)N(c3ccc(OC)cc3)C(=O)N2C2CCCCC2)cc1` (centres undefined), inactive: -2.01%. As for `Cc1ccc(Nc2cc(=O)[nH]c(=O)[nH]2)cc1C`, the figure is inactive: -0.493%; as for `COc1cccc(C(=O)N2CC(=O)Nc3ccc(C)cc3C2c2ccc(F)cc2)c1OC` (centres undefined), inactive: 2.05%; as for `COc1ccc(OC)c(CNC(=O)CCc2c(C)nc3c(c2C)c(=O)n(C)c(=O)n3C)c1`, inactive: 4.38%. Take `Cc1ccc2oc(=O)c(-c3nc4ccc(C)cc4[nH]3)cc2c1`: the “activity change, negative = cytotoxicity” value was inactive: -8.44%.
